# Measured values reported in the supplement of paper PMC11417369.
# ± gives the standard deviation of the averaged measurements. Some of the results follow.
# Tested on: PfAP2-I AP2 domain 3 (GST-tagged)
# Experiment: gcPBM binding intensity (ln(normalized median fluorescence intensity)); higher = stronger DNA binding
# Procedure, shortened: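 Plasmodium falciparum DNA-binding domains carrying a GST tag were expressed in E. coli and applied for 1 h, at about 25 μg on average, to an Agilent 4 × 180k array. The array held primer-extended double-stranded 36-bp intergenic genomic probes together with negative controls, and binding took place in 1× PBS with 1% milk, 0.2 mg/ml BSA, 0.5% salmon testes DNA and 0.03% Triton X-100. An Alexa488 anti-GST antibody detected bound protein, and the array was scanned at 488 nm. Binding intensity is taken as the highest Masliner-normalised natural-log median intensity across replicate spots of either probe orientation.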
row,Sequence,gcPBM binding intensity (ln)
1,ATATGCATAAAAAGAGGTACACATAAAATATATATA [XGTACX_site5864],8.19 ± 0.64
2,TATACACATATATAAAGTACATATATGTGTAAAAAA [XGTACX_site8582],7.61 ± 0.32
3,CAGATATTTGTTCATATACACACTTTTGATAAAATA [CACACA_site1219],7.65 ± 0.47
4,AATATTTTTTGTTTTACACACATATATAGATATATA [CACACA_site7662],8.04 ± 0.53
5,CAAAAAATGAAACACACACACACACCCATAAATAAA [CACACA_site1231],8.09 ± 0.25
6,TCATATATAAAAAGGGTGCTTTTAAAAGAATGGATT,10.22 ± 0.028
7,TTTTTTTTTGTATTTTCACACATTTTTTTTTTTTTT [CACACA_site5407],7.97 ± 0.67
8,TTATTTAAACAAATCACACACAAATATATATACATA [CACACA_site2019],7.64 ± 0.4
9,TTTTTTGGGTAAAATTATAAAATATGTATATATAAA [CACACA_negctrl_site27],7.62 ± 0.56
10,AAATATACAATATTCACACAAAAAAATACATTACAA [CACACA_site5004],7.51 ± 0.65
11,ATATATTTATATTGTACACACATTTATGCATATATA [CACACA_site7502],8.08 ± 0.45
12,TGTTTTTATAAAATAAATAAATATATATATATATAT [CACACA_negctrl_site502],9.14 ± 0.51
13,TTTCTTACAAAAGCTAGAGTTTTTTTTTTTTTTTTT [XGTACX_negctrl_site341],8.82 ± 0.52
14,AGAATAAATATGCACACATGCATATATTTTTACACT [TGCATGCA_site893],10.83 ± 0.014
15,TTAGTCCATATTTTTGCACACCATTTTTTTTTTTTT [CACACA_site3927],9.22 ± 0.38
16,ATCCTTAATATGAACACACAAATATATTGCACATAT [CACACA_site6230],10.4 ± 0.23
17,TCTTTTTCATCTTTCAACAAAAAATAATATATGTGT [CACACA_negctrl_site866],7.73 ± 0.59
18,TAAATTTGTGTTATTAAAAAAATGGTTTAAAAATGT [XGTACX_negctrl_site352],7.89 ± 0.6
19,TAGGGTAGTTATAATTGTACTTTTCTCCAAAAAAAA [XGTACX_site7321],7.78 ± 0.13
20,GAAATCTAAATAGAAACACACATATATATATATATA [CACACA_site3863],9.3 ± 0.29
21,TTTTTGTTTTTTTGTTTATCGTTCGTGACTACATGA [TGCATGCA_negctrl_site124],7.72 ± 0.61
22,AAAAATAAAAAATATAAAAATATAAAAATATAAAAA [XGTACX_negctrl_site51],7.49 ± 0.76
23,TAGGTAAATGCAAATTGGTTTAAATCAAAATATAAA [XGTACX_negctrl_site250],7.62 ± 0.71
24,TTTATTATTTTAACGTGTACAAGGTATATAATATTC [XGTACX_site5241],8.06 ± 0.4
